Measurements as given in PMC9911399, “Two distinct binding modes provide the RNA-binding protein RbFox with extraordinary sequence specificity”.
Where a chain is given by its changes, count along the chain named. The list shows a part of the results.

T1: RBFOX1 RRM RbFoxmut (Fox-RRM*) (Homo sapiens, UniProt Q9NWB1 109-208, R118D;E147R;N151S;E152T)
T1 sequence: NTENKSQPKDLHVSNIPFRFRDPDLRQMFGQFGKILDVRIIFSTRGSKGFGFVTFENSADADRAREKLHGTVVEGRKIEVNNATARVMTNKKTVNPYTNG

B1: CACUAGC (DNA:RNA)
RNA: GGGAGACCGGAAUUCAGAUUGUCCCACUAGCUUAAAUCCCGUCGUAGCCACCA
DNA 1: CAATCTGAATTCCGGTCTCCC
DNA 2: TGGTGGCTACGACGGGATT
B2: AGAUUCC (DNA:RNA)
RNA: B1 RNA with C25A, A26G, C27A, A29U, G30C
DNA 1: CAATCTGAATTCCGGTCTCCC
DNA 2: TGGTGGCTACGACGGGATT
B3: AGGGGGC (DNA:RNA)
RNA: B1 RNA with C25A, A26G, C27G, U28G, A29G
DNA 1: CAATCTGAATTCCGGTCTCCC
DNA 2: TGGTGGCTACGACGGGATT
B4: CCUGGUA (DNA:RNA)
RNA: B1 RNA with A26C, C27U, U28G, A29G, G30U, C31A
DNA 1: CAATCTGAATTCCGGTCTCCC
DNA 2: TGGTGGCTACGACGGGATT
B5: AUUGAUC (DNA:RNA)
RNA: B1 RNA with C25A, A26U, C27U, U28G, G30U
DNA 1: CAATCTGAATTCCGGTCTCCC
DNA 2: TGGTGGCTACGACGGGATT
B6: GGGCCCG (DNA:RNA)
RNA: GGGAGACCGGAAUUCAGAUUGUCCGGGCCCGUUAAAUCCCGUCGUAGCCACCA
DNA 1: CAATCTGAATTCCGGTCTCCC
DNA 2: TGGTGGCTACGACGGGATT
B7: CUUCGCG (DNA:RNA)
RNA: B6 RNA with G25C, G26U, G27U, C29G
DNA 1: CAATCTGAATTCCGGTCTCCC
DNA 2: TGGTGGCTACGACGGGATT
B8: GUACCGC (DNA:RNA)
RNA: B6 RNA with G26U, G27A, C30G, G31C
DNA 1: CAATCTGAATTCCGGTCTCCC
DNA 2: TGGTGGCTACGACGGGATT
B9: CCUCUCA (DNA:RNA)
RNA: B6 RNA with G25C, G26C, G27U, C29U, G31A
DNA 1: CAATCTGAATTCCGGTCTCCC
DNA 2: TGGTGGCTACGACGGGATT
B10: UUCUAGU (DNA:RNA)
RNA: B1 RNA with C25U, A26U, C31U
DNA 1: CAATCTGAATTCCGGTCTCCC
DNA 2: TGGTGGCTACGACGGGATT
B11: AGUCAAC (DNA:RNA)
RNA: B1 RNA with C25A, A26G, C27U, U28C, G30A
DNA 1: CAATCTGAATTCCGGTCTCCC
DNA 2: TGGTGGCTACGACGGGATT
B12: CACGUUU (DNA:RNA)
RNA: B1 RNA with U28G, A29U, G30U, C31U
DNA 1: CAATCTGAATTCCGGTCTCCC
DNA 2: TGGTGGCTACGACGGGATT
B13: CUGGGAG (DNA:RNA)
RNA: B6 RNA with G25C, G26U, C28G, C29G, C30A
DNA 1: CAATCTGAATTCCGGTCTCCC
DNA 2: TGGTGGCTACGACGGGATT
B14: CGACCUG (DNA:RNA)
RNA: B6 RNA with G25C, G27A, C30U
DNA 1: CAATCTGAATTCCGGTCTCCC
DNA 2: TGGTGGCTACGACGGGATT
B15: CGGAACG (DNA:RNA)
RNA: B6 RNA with G25C, C28A, C29A
DNA 1: CAATCTGAATTCCGGTCTCCC
DNA 2: TGGTGGCTACGACGGGATT
B16: GCUUCGU (DNA:RNA)
RNA: B1 RNA with C25G, A26C, C27U, A29C, C31U
DNA 1: CAATCTGAATTCCGGTCTCCC
DNA 2: TGGTGGCTACGACGGGATT
B17: CUGACGA (DNA:RNA)
RNA: B1 RNA with A26U, C27G, U28A, A29C, C31A
DNA 1: CAATCTGAATTCCGGTCTCCC
DNA 2: TGGTGGCTACGACGGGATT
B18: AGGAAUA (DNA:RNA)
RNA: B6 RNA with G25A, C28A, C29A, C30U, G31A
DNA 1: CAATCTGAATTCCGGTCTCCC
DNA 2: TGGTGGCTACGACGGGATT
B19: AAAAAAC (DNA:RNA)
RNA: B1 RNA with C25A, C27A, U28A, G30A
DNA 1: CAATCTGAATTCCGGTCTCCC
DNA 2: TGGTGGCTACGACGGGATT
B20: GUACCGA (DNA:RNA)
RNA: B6 RNA with G26U, G27A, C30G, G31A
DNA 1: CAATCTGAATTCCGGTCTCCC
DNA 2: TGGTGGCTACGACGGGATT
B21: CGAUGCG (DNA:RNA)
RNA: B6 RNA with G25C, G27A, C28U, C29G
DNA 1: CAATCTGAATTCCGGTCTCCC
DNA 2: TGGTGGCTACGACGGGATT
B22: ACUCAGG (DNA:RNA)
RNA: B1 RNA with C25A, A26C, C27U, U28C, C31G
DNA 1: CAATCTGAATTCCGGTCTCCC
DNA 2: TGGTGGCTACGACGGGATT
B23: GUUCACU (DNA:RNA)
RNA: B6 RNA with G26U, G27U, C29A, G31U
DNA 1: CAATCTGAATTCCGGTCTCCC
DNA 2: TGGTGGCTACGACGGGATT
B24: AUUAGCA (DNA:RNA)
RNA: B6 RNA with G25A, G26U, G27U, C28A, C29G, G31A
DNA 1: CAATCTGAATTCCGGTCTCCC
DNA 2: TGGTGGCTACGACGGGATT
B25: UCCAGAC (DNA:RNA)
RNA: B1 RNA with C25U, A26C, U28A, A29G, G30A
DNA 1: CAATCTGAATTCCGGTCTCCC
DNA 2: TGGTGGCTACGACGGGATT
B26: CUAAAAG (DNA:RNA)
RNA: B1 RNA with A26U, C27A, U28A, G30A, C31G
DNA 1: CAATCTGAATTCCGGTCTCCC
DNA 2: TGGTGGCTACGACGGGATT
B27: ACGGAAA (DNA:RNA)
RNA: B1 RNA with C25A, A26C, C27G, U28G, G30A, C31A
DNA 1: CAATCTGAATTCCGGTCTCCC
DNA 2: TGGTGGCTACGACGGGATT
B28: GUCGUAC (DNA:RNA)
RNA: B1 RNA with C25G, A26U, U28G, A29U, G30A
DNA 1: CAATCTGAATTCCGGTCTCCC
DNA 2: TGGTGGCTACGACGGGATT
B29: CAGAUGU (DNA:RNA)
RNA: B1 RNA with C27G, U28A, A29U, C31U
DNA 1: CAATCTGAATTCCGGTCTCCC
DNA 2: TGGTGGCTACGACGGGATT
B30: AAGCACG (DNA:RNA)
RNA: B6 RNA with G25A, G26A, C29A
DNA 1: CAATCTGAATTCCGGTCTCCC
DNA 2: TGGTGGCTACGACGGGATT
B31: CGUCAUC (DNA:RNA)
RNA: B1 RNA with A26G, C27U, U28C, G30U
DNA 1: CAATCTGAATTCCGGTCTCCC
DNA 2: TGGTGGCTACGACGGGATT

These binders were tested against T1, RBFOX1 RRM RbFoxmut (Fox-RRM*) (assay: EMSA; HiTS-Eq, 1 nM pool, 10 min; buffer printed only for the single-RNA assays: 10 mM Tris pH 7.5, 150 mM NaCl, 3.4 mM EDTA, 0.001% NP-40, 30 C). Conditions: tags: His6 N-terminal (pET28a); label: 5' 32P.
How it was run: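 Purified RbFox RRM, wild type or mutant, was incubated for 10 min in 50 µL with 1 nM of a 5′-radiolabelled RNA pool carrying 7 randomized nucleotides, whose flanks were annealed to DNA oligonucleotides, over a series of increasing protein concentrations. Unbound RNA was resolved on 8% native PAGE, cut out, reverse-transcribed, barcoded by PCR and sequenced on an Illumina HiSeq 2500. Relative association constants were derived from changes in read counts for each RNA species versus the control reaction and normalised to the cognate motif.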

| Binder | binding signal |
| --- | --- |
| B1 | 0.117 KA relative to UGCAUGU |
| B2 | 0.0687 KA relative to UGCAUGU |
| B3 | 0.115 KA relative to UGCAUGU |
| B4 | 0.137 KA relative to UGCAUGU |
| B5 | 0.0635 KA relative to UGCAUGU |
| B6 | 0.133 KA relative to UGCAUGU |
| B7 | 0.143 KA relative to UGCAUGU |
| B8 | 0.0842 KA relative to UGCAUGU |
| B9 | 0.0614 KA relative to UGCAUGU |
| B10 | 0.158 KA relative to UGCAUGU |
| B11 | 0.0571 KA relative to UGCAUGU |
| B12 | 0.105 KA relative to UGCAUGU |
| B13 | 0.119 KA relative to UGCAUGU |
| B14 | 0.0669 KA relative to UGCAUGU |
| B15 | 0.53 KA relative to UGCAUGU |
| B16 | 0.184 KA relative to UGCAUGU |

| Binder | binding signal |
| --- | --- |
| B17 | 0.0574 KA relative to UGCAUGU |
| B18 | 0.155 KA relative to UGCAUGU |
| B19 | 0.0759 KA relative to UGCAUGU |
| B20 | 0.103 KA relative to UGCAUGU |
| B21 | 0.113 KA relative to UGCAUGU |
| B22 | 0.104 KA relative to UGCAUGU |
| B23 | 0.0707 KA relative to UGCAUGU |
| B24 | 0.142 KA relative to UGCAUGU |
| B25 | 0.0633 KA relative to UGCAUGU |
| B26 | 0.067 KA relative to UGCAUGU |
| B27 | 0.0755 KA relative to UGCAUGU |
| B28 | 0.123 KA relative to UGCAUGU |
| B29 | 0.116 KA relative to UGCAUGU |
| B30 | 0.2 KA relative to UGCAUGU |
| B31 | 0.0997 KA relative to UGCAUGU |
